# Source: the supplement of paper PMC8728848
# This is one part of the list.
# Columns and labels:
# Assay in all cases: glycan array binding signal (z-score within array); higher = stronger binding
# Settings in all cases: glycan notation: IUPAC condensed, linker removed
# [1] = target: Man(a1-2)Man(a1-3)[Man(a1-2)Man(a1-6)]Man
# Outline: (§1)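 From the Consortium for Functional Glycomics database, 3228 arrays were curated, keeping only those whose protein sequence was available. Binding is given as a within-array Z-score averaged across arrays sharing a protein sequence and across linkers. Negative Z-scores can be read as non-binding.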
# [2] = target: Man(a1-2)Man(a1-3)[Man(a1-2)Man(a1-6)]Man(a1-6)[Man(a1-2)Man(a1-2)Man(a1-3)]Man
# Outline: as §1
# [3] = target: Man(a1-2)Man(a1-3)[Man(a1-2)Man(a1-6)]Man(a1-6)[Man(a1-2)Man(a1-2)Man(a1-3)]Man(b1-4)GlcNAc(b1-4)GlcNAc
# Outline: as §1
# [4] = target: Man(a1-2)Man(a1-3)[Man(a1-6)]Man(a1-6)[Man(a1-2)Man(a1-3)]Man(b1-4)GlcNAc(b1-4)GlcNAc
# Outline: as §1
# [5] = target: Man(a1-2)Man(a1-6)[Man(a1-3)]Man(a1-6)[Man(a1-2)Man(a1-2)Man(a1-3)]Man
# Outline: as §1
# [6] = target: Man(a1-2)Man(a1-6)[Man(a1-3)]Man(a1-6)[Man(a1-2)Man(a1-2)Man(a1-3)]Man(b1-4)GlcNAc(b1-4)GlcNAc
# Outline: as §1
# [7] = target: Man(a1-3)[Man(a1-6)]Man
# Outline: as §1
# [8] = target: Man(a1-3)[Man(a1-6)]Man(a1-6)[Man(a1-2)Man(a1-3)]Man(b1-4)GlcNAc(b1-4)GlcNAc
# Outline: as §1
# [9] = target: Man(a1-3)[Man(a1-6)]Man(a1-6)[Man(a1-3)]Man
# Outline: as §1
# [10] = target: Man(a1-3)[Man(a1-6)]Man(a1-6)[Man(a1-3)]Man(b1-4)GlcNAc(b1-4)GlcNAc
# Outline: as §1
# [11] = target: Man(a1-3)[Man(a1-6)]Man(b1-4)GlcNAc(b1-4)GlcNAc
# Outline: as §1
# [12] = target: Man(a1-3)[Man(a1-6)]Man(b1-4)GlcNAc(b1-4)[Fuc(a1-6)]GlcNAc
# Outline: as §1
# [13] = target: Man(a1-6)Man
# Outline: as §1
# [14] = target: Man(b1-4)GlcNAc
# Outline: as §1
# [15] = target: MurNAc(b1-4)GlcNAc
# Outline: as §1
# [16] = target: Neu5Ac(a2-3)Gal
# Outline: as §1
# [17] = target: Neu5Ac(a2-3)Gal(b1-3)GalNAc
# Outline: as §1
# [18] = target: Neu5Ac(a2-3)Gal(b1-3)GalNAc(b1-3)Gal(a1-4)Gal(b1-4)Glc
# Outline: as §1
# [19] = target: Neu5Ac(a2-3)Gal(b1-3)GalNAc(b1-4)Gal(b1-4)Glc
# Outline: as §1
# [20] = target: Neu5Ac(a2-3)Gal(b1-3)GalNAc(b1-4)[Neu5Ac(a2-3)]Gal(b1-4)Glc
# Outline: as §1
# [21] = target: Neu5Ac(a2-3)Gal(b1-3)GalNAc(b1-4)[Neu5Ac(a2-8)Neu5Ac(a2-3)]Gal(b1-4)Glc
# Outline: as §1
# [22] = target: Neu5Ac(a2-3)Gal(b1-3)GalNAc6S
# Outline: as §1
# [23] = target: Neu5Ac(a2-3)Gal(b1-3)GlcNAc
# Outline: as §1
# [24] = target: Neu5Ac(a2-3)Gal(b1-3)GlcNAc(b1-2)Man
# Outline: as §1
# [25] = target: Neu5Ac(a2-3)Gal(b1-3)GlcNAc(b1-2)Man(a1-3)[GlcNAc(b1-4)][Neu5Ac(a2-3)Gal(b1-3)GlcNAc(b1-2)Man(a1-6)]Man(b1-4)GlcNAc(b1-4)GlcNAc
# Outline: as §1
# [26] = target: Neu5Ac(a2-3)Gal(b1-3)GlcNAc(b1-2)Man(a1-3)[Neu5Ac(a2-3)Gal(b1-3)GlcNAc(b1-2)Man(a1-6)]Man(b1-4)GlcNAc(b1-4)GlcNAc
# Outline: as §1
# [27] = target: Neu5Ac(a2-3)Gal(b1-3)GlcNAc(b1-2)[Neu5Ac(a2-3)Gal(b1-3)GlcNAc(b1-4)]Man(a1-6)[Neu5Ac(a2-3)Gal(b1-3)GlcNAc(b1-2)Man(a1-3)]Man(b1-4)GlcNAc(b1-4)GlcNAc
# Outline: as §1
# [28] = target: Neu5Ac(a2-3)Gal(b1-3)GlcNAc(b1-3)Gal(b1-3)GlcNAc
# Outline: as §1
# [29] = target: Neu5Ac(a2-3)Gal(b1-3)GlcNAc(b1-3)Gal(b1-4)GlcNAc
# Outline: as §1
# [30] = target: Neu5Ac(a2-3)Gal(b1-3)GlcNAc(b1-3)GalNAc
# Outline: as §1
binder,measurement,setting,value
Di AAL2 (Agrocybe aegerita) (protein) MTSNVITQDLPIPVASRGFADIVGFGLDGVVIGRNAVNLQPFLAVKNFAQNAGGWLTTKHVRLIADTTGTGKGDIVGFGNAGVYVSVNNGKNTFADPPKMVIANFGYDAGGWRVEKHLRYLADIRKIGRADIIGFGEKGVLVSRNNGGLNFGPATLVLKDFGYDAGGWRLDRHLRFLADVTGNGHLDIVGFGDKHVFISRNNGDGTFAPAKSVIDNFCIDAGGWKIGDHPRFVADLTGDGTADIIGCGKAGCWVALNNGGGVFGQVKLVINDFGTDKGWQAAKHPRFIADLTGNGRGDVVGFGNAGVYVALNNGDGTFQSAKLVLKDFGVQQGWTVSKHRRFVVDLTGDGCADIIGFGEKETLVSYNDGKGNFGPVKALTNDFSFSGGKWAPETTVCWMANLDSSRHPAPAPMTSNVITQDLPIPVASRGFADIVGFGLDGVVIGRNAVNLQPFLAVKNFAQNAGGWLTTKHVRLIADTTGTGKGDIVGFGNAGVYVSVNNGKNTFADPPKMVIANFGYDAGGWRVEKHLRYLADIRKIGRADIIGFGEKGVLVSRNNGGLNFGPATLVLKDFGYDAGGWRLDRHLRFLADVTGNGHLDIVGFGDKHVFISRNNGDGTFAPAKSVIDNFCIDAGGWKIGDHPRFVADLTGDGTADIIGCGKAGCWVALNNGGGVFGQVKLVINDFGTDKGWQAAKHPRFIADLTGNGRGDVVGFGNAGVYVALNNGDGTFQSAKLVLKDFGVQQGWTVSKHRRFVVDLTGDGCADIIGFGEKETLVSYNDGKGNFGPVKALTNDFSFSGGKWAPETTVCWMANLDSSRH,glycan array binding signal (z-score),[1],-0.256
same,glycan array binding signal (z-score),[2],-0.348
same,glycan array binding signal (z-score),[3],-0.32
same,glycan array binding signal (z-score),[4],-0.345
same,glycan array binding signal (z-score),[5],-0.341
same,glycan array binding signal (z-score),[6],-0.323
same,glycan array binding signal (z-score),[7],-0.336
same,glycan array binding signal (z-score),[8],-0.329
same,glycan array binding signal (z-score),[9],-0.304
same,glycan array binding signal (z-score),[10],-0.333
same,glycan array binding signal (z-score),[11],-0.332
same,glycan array binding signal (z-score),[12],-0.327
same,glycan array binding signal (z-score),[13],-0.329
same,glycan array binding signal (z-score),[14],-0.329
same,glycan array binding signal (z-score),[15],0.692
same,glycan array binding signal (z-score),[16],-0.2
same,glycan array binding signal (z-score),[17],-0.216
same,glycan array binding signal (z-score),[18],-0.151
same,glycan array binding signal (z-score),[19],-0.314
same,glycan array binding signal (z-score),[20],0.03
same,glycan array binding signal (z-score),[21],-0.302
same,glycan array binding signal (z-score),[22],-0.173
same,glycan array binding signal (z-score),[23],-0.228
same,glycan array binding signal (z-score),[24],-0.242
same,glycan array binding signal (z-score),[25],-0.329
same,glycan array binding signal (z-score),[26],-0.321
same,glycan array binding signal (z-score),[27],-0.176
same,glycan array binding signal (z-score),[28],0.091
same,glycan array binding signal (z-score),[29],0.065
same,glycan array binding signal (z-score),[30],-0.098
